Measurements as given in the supplement of paper PMC8728848.
This is one part of the list.

What was measured:
Assay in all cases: glycan array binding signal (z-score within array); higher = stronger binding
Conditions in all cases: glycan notation: IUPAC condensed, linker removed
[1] = biological target: Neu5Ac(a2-6)Gal(b1-4)GlcNAc(b1-3)Gal(b1-4)GlcNAc(b1-3)GalNAc
Procedure, shortened: (§1)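 The binding signal is a Z-score computed within each array and averaged over linkers. Arrays of the same protein sequence at different concentrations or buffers were also averaged together. Data originate from 3228 arrays in the Consortium for Functional Glycomics database, kept only where the protein sequence was available.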

[2] = biological target: Neu5Ac(a2-6)Gal(b1-4)GlcNAc(b1-3)Gal(b1-4)GlcNAc(b1-3)[Neu5Ac(a2-6)Gal(b1-4)GlcNAc(b1-3)Gal(b1-4)GlcNAc(b1-6)]GalNAc
Procedure, shortened: as §1

[3] = biological target: Neu5Ac(a2-6)Gal(b1-4)GlcNAc(b1-3)Gal(b1-4)GlcNAc(b1-6)[Gal(b1-3)]GalNAc
Procedure, shortened: as §1

[4] = biological target: Neu5Ac(a2-6)Gal(b1-4)GlcNAc(b1-3)Gal(b1-4)[Fuc(a1-3)]GlcNAc(b1-3)Gal(b1-4)[Fuc(a1-3)]GlcNAc
Procedure, shortened: as §1

[5] = biological target: Neu5Ac(a2-6)Gal(b1-4)GlcNAc(b1-3)GalNAc
Procedure, shortened: as §1

[6] = biological target: Neu5Ac(a2-6)Gal(b1-4)GlcNAc(b1-3)[Neu5Ac(a2-6)Gal(b1-4)GlcNAc(b1-6)]GalNAc
Procedure, shortened: as §1

[7] = biological target: Neu5Ac(a2-6)Gal(b1-4)GlcNAc(b1-6)GalNAc
Procedure, shortened: as §1

[8] = biological target: Neu5Ac(a2-6)Gal(b1-4)GlcNAc(b1-6)[Gal(b1-3)GlcNAc(b1-3)]Gal(b1-4)Glc
Procedure, shortened: as §1

[9] = biological target: Neu5Ac(a2-6)Gal(b1-4)GlcNAc(b1-6)[Gal(b1-3)]GalNAc
Procedure, shortened: as §1

[10] = biological target: Neu5Ac(a2-6)Gal(b1-4)GlcNAc6S
Procedure, shortened: as §1

[11] = biological target: Neu5Ac(a2-6)GalNAc
Procedure, shortened: as §1

[12] = biological target: Neu5Ac(a2-6)GalNAc(b1-4)GlcNAc
Procedure, shortened: as §1

[13] = biological target: Neu5Ac(a2-6)GalNAc(b1-4)GlcNAc6S
Procedure, shortened: as §1

[14] = biological target: Neu5Ac(a2-6)GlcNAc(b1-4)GlcNAc
Procedure, shortened: as §1

[15] = biological target: Neu5Ac(a2-6)GlcNAc(b1-4)GlcNAc(b1-4)GlcNAc
Procedure, shortened: as §1

[16] = biological target: Neu5Ac(a2-8)Neu5Ac
Procedure, shortened: as §1

[17] = biological target: Neu5Ac(a2-8)Neu5Ac(a2-3)Gal(b1-3)GalNAc(b1-4)[Neu5Ac(a2-3)]Gal(b1-4)Glc
Procedure, shortened: as §1

[18] = biological target: Neu5Ac(a2-8)Neu5Ac(a2-3)Gal(b1-3)GalNAc(b1-4)[Neu5Ac(a2-8)Neu5Ac(a2-3)]Gal(b1-4)Glc
Procedure, shortened: as §1

[19] = biological target: Neu5Ac(a2-8)Neu5Ac(a2-3)Gal(b1-4)Glc
Procedure, shortened: as §1

[20] = biological target: Neu5Ac(a2-8)Neu5Ac(a2-3)Gal(b1-4)GlcNAc
Procedure, shortened: as §1

[21] = biological target: Neu5Ac(a2-8)Neu5Ac(a2-3)[Gal(b1-3)GalNAc(b1-4)]Gal(b1-4)Glc
Procedure, shortened: as §1

[22] = biological target: Neu5Ac(a2-8)Neu5Ac(a2-3)[GalNAc(b1-4)]Gal(b1-4)Glc
Procedure, shortened: as §1

[23] = biological target: Neu5Ac(a2-8)Neu5Ac(a2-8)Neu5Ac
Procedure, shortened: as §1

[24] = biological target: Neu5Ac(a2-8)Neu5Ac(a2-8)Neu5Ac(a2-3)Gal(b1-4)Glc
Procedure, shortened: as §1

[25] = biological target: Neu5Ac(a2-8)Neu5Ac(a2-8)Neu5Ac(a2-3)[Gal(b1-3)GalNAc(b1-4)]Gal(b1-4)Glc
Procedure, shortened: as §1

[26] = biological target: Neu5Ac(a2-8)Neu5Ac(a2-8)Neu5Ac(a2-3)[GalNAc(b1-4)]Gal(b1-4)Glc
Procedure, shortened: as §1

[27] = biological target: Neu5Ac(a2-8)Neu5Ac(a2-8)Neu5Ac(a2-8)Neu5Ac(a2-3)[GalNAc(b1-4)]Gal(b1-4)Glc
Procedure, shortened: as §1

[28] = biological target: Neu5Ac(a2-8)Neu5Gc(a2-3)Gal(b1-4)GlcNAc
Procedure, shortened: as §1

[29] = biological target: Neu5Ac(b2-6)Gal(b1-4)GlcNAc
Procedure, shortened: as §1

[30] = biological target: Neu5Ac(b2-6)GalNAc
Procedure, shortened: as §1

[31] = biological target: Neu5Ac9Ac(a2-3)Gal(b1-3)GlcNAc
Procedure, shortened: as §1

[32] = biological target: Neu5Ac9Ac(a2-3)Gal(b1-4)GlcNAc
Procedure, shortened: as §1

[33] = biological target: Neu5Ac9Ac(a2-6)Gal(b1-4)GlcNAc
Procedure, shortened: as §1

[34] = biological target: Neu5Gc(a2-3)Gal(b1-3)GlcNAc
Procedure, shortened: as §1

[35] = biological target: Neu5Gc(a2-3)Gal(b1-3)[Fuc(a1-4)]GlcNAc
Procedure, shortened: as §1

[36] = biological target: Neu5Gc(a2-3)Gal(b1-4)Glc
Procedure, shortened: as §1

[37] = biological target: Neu5Gc(a2-3)Gal(b1-4)GlcNAc
Procedure, shortened: as §1

[38] = biological target: Neu5Gc(a2-3)Gal(b1-4)GlcNAc(b1-3)Gal(b1-4)GlcNAc(b1-2)Man(a1-3)[Neu5Gc(a2-3)Gal(b1-4)GlcNAc(b1-3)Gal(b1-4)GlcNAc(b1-2)Man(a1-6)]Man(b1-4)GlcNAc(b1-4)GlcNAc
Procedure, shortened: as §1

[39] = biological target: Neu5Gc(a2-3)Gal(b1-4)[Fuc(a1-3)]GlcNAc
Procedure, shortened: as §1

[40] = biological target: Neu5Gc(a2-6)Gal(b1-4)GlcNAc
Procedure, shortened: as §1

[41] = biological target: Neu5Gc(a2-6)GalNAc
Procedure, shortened: as §1

[42] = biological target: Neu5Gc(a2-8)Neu5Ac(a2-3)Gal(b1-4)GlcNAc
Procedure, shortened: as §1

[43] = biological target: Neu5Gc(a2-8)Neu5Gc(a2-3)Gal(b1-4)GlcNAc
Procedure, shortened: as §1

[44] = biological target: Neu5Gc(a2-8)Neu5Gc(a2-3)Gal(b1-4)GlcNAc(b1-3)Gal(b1-4)GlcNAc
Procedure, shortened: as §1

[45] = biological target: Neu5Gc(a2-8)Neu5Gc(a2-6)Gal(b1-4)GlcNAc
Procedure, shortened: as §1

[46] = biological target: Neu5Gc(b2-6)Gal(b1-4)GlcNAc
Procedure, shortened: as §1

B1: SP16664D-bth-476-27-476 (Bacteroides thetaiotaomicron) (protein)
chain: DDLEVGKNIDESAYSGIYENNAYLRDGKSNLVSKVVELHGETYATTVKMGLSKTPNTATSAKVKIDAAYLETYNKAHNTDFALYPQDLVTFANEGILTVNANTKSAEVEMTIRAGEGLQEDKTYAIPVAISDQSSDITIKDEDAKHCIYLVKDMRNAGDAYKGEGVMQGYLFFEVNDVNPLNTLSFQLENGKLLWDVVVLFAANINYDAEAGRPRVQCNPNVQYLLDNNETLLQPLRRRGVKVLLGLLGNHDITGLAQLSEQGAKDFAREVAQYCKAYNLDGVNYDDEYSNSPDLSNPSLTNPSTAAAARLCYETKQAMPDKLVTVFDWGQMYGVATVDGVDAKEWIDIVVANYGSAAYPIGQMTKKQCSGISMEFNLGGGGSLSASKAQSMIDGGYGWFMGFAPSPAKYGSVFSRLQGGGEVLYGSNVAAPTIFYKKNDPTPYKYPDDL
- glycan array binding signal (z-score) [1]: -0.363
- glycan array binding signal (z-score) [2]: -0.235
- glycan array binding signal (z-score) [3]: 0.291
- glycan array binding signal (z-score) [4]: 0.048
- glycan array binding signal (z-score) [5]: -0.194
- glycan array binding signal (z-score) [6]: -0.309
- glycan array binding signal (z-score) [7]: -0.041
- glycan array binding signal (z-score) [8]: -0.349
- glycan array binding signal (z-score) [9]: -0.082
- glycan array binding signal (z-score) [10]: -0.047
- glycan array binding signal (z-score) [11]: -0.006
- glycan array binding signal (z-score) [12]: -0.264
- glycan array binding signal (z-score) [13]: -0.065
- glycan array binding signal (z-score) [14]: 0.144
- glycan array binding signal (z-score) [15]: -0.029
- glycan array binding signal (z-score) [16]: -0.161
- glycan array binding signal (z-score) [17]: -0.237
- glycan array binding signal (z-score) [18]: 0.139
- glycan array binding signal (z-score) [19]: -0.328
- glycan array binding signal (z-score) [20]: -0.238
- glycan array binding signal (z-score) [21]: -0.262
- glycan array binding signal (z-score) [22]: -0.158
- glycan array binding signal (z-score) [23]: -0.336
- glycan array binding signal (z-score) [24]: -0.14
- glycan array binding signal (z-score) [25]: -0.225
- glycan array binding signal (z-score) [26]: 2.53
- glycan array binding signal (z-score) [27]: 0.095
- glycan array binding signal (z-score) [28]: -0.346
- glycan array binding signal (z-score) [29]: -0.182
- glycan array binding signal (z-score) [30]: -0.24
- glycan array binding signal (z-score) [31]: -0.226
- glycan array binding signal (z-score) [32]: -0.052
- glycan array binding signal (z-score) [33]: -0.233
- glycan array binding signal (z-score) [34]: -0.232
- glycan array binding signal (z-score) [35]: -0.044
- glycan array binding signal (z-score) [36]: -0.239
- glycan array binding signal (z-score) [37]: -0.227
- glycan array binding signal (z-score) [38]: -0.176
- glycan array binding signal (z-score) [39]: -0.243
- glycan array binding signal (z-score) [40]: -0.282
- glycan array binding signal (z-score) [41]: -0.127
- glycan array binding signal (z-score) [42]: -0.114
- glycan array binding signal (z-score) [43]: -0.222
- glycan array binding signal (z-score) [44]: -0.176
- glycan array binding signal (z-score) [45]: -0.109
- glycan array binding signal (z-score) [46]: -0.051
